In PubChem BioAssay AID485364 (National Center for Advancing Translational Sciences (NCATS), 2010):
Several values for one entry are separate records, joined by “and”; a condition that tells them apart may be missing. Identical values can stand only once. The campaign covered roughly 360,000 compounds. About 11,000 (3.1%) were called active. Inconclusive means that the source gave no clear call. Such entries were picked first, then a sample of the others. Calls follow the shape of the dose curve; as a rule, active = well fitted inhibition curve with a large enough effect; inconclusive = small, poorly fitted or top-dose-only effect; inactive = no such curve, though single readings can be large or run the other way. Potencies of inconclusive entries are left out as doubtful fits.

Biological target: Schistosoma mansoni thioredoxin glutathione reductase (TGR) (UniProt Q962Y6)
Assay: qHTS Assay for the Inhibitors of Schistosoma Mansoni Peroxiredoxins; also: nearly all actives have a fitted effect of over 60% in size
Conditions: purified TGR, DTNB reduction, TNB absorbance 405 nm; series mostly up to 114 µM
Source text: Schistosomiasis is a major neglected tropical disease that currently affects over 200 million. It is caused by different species of flatworms, such as Schistosoma mansoni. Over the last century, drugs to treat the disease have evolved from potassium antimonyl tartrate, artemisinin, oxamniquine, to praziquantel, with praziquantel remaining the universally-used single drug of choice over the past three decades. However, transmission rates have changed little with praziquantel, and there is evidence for the development of drug resistant parasites. Because there is currently no suitable alternative therapy available, there is an urgent need to identify new targets and drugs for schistosomiasis treatment. Thioredoxin glutathione reductase (TGR), one uniquely positioned S. mansoni enzyme, has been identified as a major component of the worms' distinct and compressed antioxidant "firewall". TGR is a multifunctional enzyme that catalyzes the interconversion between reduced and oxidized forms of both glutathione (GSH) and thioredoxins, thus making it an attractive new antiparasitic target. Recently, a quantitative high-throughput screen of the NIH Molecular Libraries Small Molecule Repository (MLSMR, ~71K at the time of the screen in 2007) was performed using an assay that targeted both TGR and peroxiredoxin2 (Prx2, an H2O2-reducing enzymatic component of the S. mansoni redox "firewall") by following the decrease of NADPH fluorescence. […] Additional mechanistic link between exogenous NO donation and parasitic injury for the oxadiazole-2-oxide class of compounds was also expanded and better defined. Although the screen addressed both TGR and Prx2, the assay required post-screen target deconvolution for further characterization of the actives. In addition, the fluorescence assay was also subject to fluorescence interference from compound library members. We have developed a 1536-well-based kinetic HTS assay to address TGR alone. The assay followed the reduction of 5, 5'-dithiobis (2-nitrobenzoic acid) (DTNB) (Ellman's reagent) by NADPH and measured the increase in absorbance at 412 nm of the reaction product, TNB. […] This assay format can be used to screen the current MLSMR collection (with >300K compounds available) to find novel TGR inhibitors. Furoxan is a good choice to serve as a positive control in the primary HTS assay.
Three microliters of reagents (100 uM NADPH and 20 nM TGR or 100 uM NADPH as no-enzyme control) were dispensed into 1,536-well black clear-bottomed plates. Compounds (23 nL) were transferred via Kalypsys pin tool equipped with 1536-pin array (10 nL slotted pins, V&P Scientific, San Diego, CA). The plates were then be incubated for 15 min at room temperature, and 1 uL aliquot of 500 uM NADPH were added, immediately followed by a 1 uL aliquot of 15 mM DTNB to start the reaction. The plate was transferred to a ViewLux high-throughput CCD imager (Perkin-Elmer, Wellesley, MA) where kinetic measurements of the TNB absorbance were acquired using a 405 excitation filter. Throughout the screen, reagent bottles and all liquid lines were made light-tight to minimize reagent degradation. All screening operations were performed on a fully integrated robotic system (Kalypsys, San Diego, CA) containing one RX-130 and two RX-90 anthropomorphic robotic arms (Staubli, Duncan, SC). Library plates were screened starting from the lowest and proceeding to the highest concentration, and a "double-dipping" step of the highest concentration was required to access higher concentrations of compounds. Vehicle-only plates, with DMSO being pin-transferred to the entire column 5-48 compound area, were inserted uniformly at the beginning and the end of each library in order to monitor for and record any shifts in the background, which can be affected by reagent dispensers or loss in enzyme activity overtime. […]
Potency is read from the fitted curve at half-maximal effect; tags tell the direction and shape of the fitted curve.

Row | SMILES | Potency
1 | CCN(CC)Cc1c(O)ccc2c1O/C(=C\C=C\c1ccccc1)C2=O | inconclusive [inhibitor, partial curve]
2 | CCN(c1ccccc1)S(=O)(=O)c1ccc(C(=O)N(CCCN(C)C)c2nc3c(C)cccc3s2)cc1 | inactive
3 | CN(C)C(CNC(=O)CN1C(=O)NC2(CCc3ccccc32)C1=O)c1ccco1 (centres undefined) | inconclusive [inhibitor, partial curve]
4 | CC(C)CN1CC(=O)N2C(c3ccccc3)c3[nH]c4ccccc4c3C[C@H]2C1=O (some centres undefined) | inactive
5 | Cc1nn(Cc2ccc(Cl)c(Cl)c2)c(C)c1NC(=O)c1cc(-c2ccco2)on1 | active: 44.7 µM
6 | CCc1ccccc1NC(=O)Cn1c(=O)n(-c2ccc(C)c(C)c2)c(=O)c2oc3ccccc3c21 | inconclusive [inhibitor, single point]
7 | O=C(NC(Cc1ccccc1)C(=O)O)/C(=C\c1ccco1)NC(=O)c1ccccc1Br (centres undefined) | inconclusive [inhibitor, partial curve]
8 | CC(=O)Nc1ccc(S(=O)(=O)NCCC(=O)Nc2ccc(C)cn2)cc1 | inconclusive [inhibitor, single point]
9 | CN(C)S(=O)(=O)c1cc(C(=O)Nc2ccccc2C(=O)NC2CC2)ccc1Cl | inconclusive [inhibitor, partial curve]
10 | c1coc(CNc2ncnc3[nH]ncc23)c1 | inactive
11 | CCCCCOC(=O)c1[nH]c2c(c1C)C(=O)CC(c1ccco1)C2 (centres undefined) | inconclusive [inhibitor, partial curve]
12 | COc1cccc(CNc2ccc(N3CCC(C)CC3)cc2)c1OC | inconclusive [inhibitor, full curve]
13 | CC1=CC(=O)c2ccccc2C1=O | active: 25.1 µM and active: 28.2 µM
14 | CCOC(=O)c1c(C)[nH]c(C(=O)OCC(=O)Nc2ccccc2)c1C | inactive
15 | CCN(C(=O)c1cc2cc(Br)cc(OC)c2oc1=O)c1ccccc1 | inconclusive [inhibitor, single point]
16 | COc1ccc(C(=O)NCC(c2ccco2)N(C)C)cc1S(=O)(=O)NCc1ccc(Cl)cc1 (centres undefined) | inconclusive [inhibitor, partial curve]
17 | COc1ccc(C(=O)O/N=C(\N)c2ccccc2Cl)cc1OC | inactive
18 | CCCc1nc(SCc2ccccc2Cl)n[nH]1 | inactive
19 | O=C(CCc1ccccn1)N1CCCC(N2CCN(c3ccc(F)cc3)CC2)C1 (centres undefined) | inactive
20 | O=C(CSc1nnc(-c2ccncc2)n1-c1ccc(F)cc1)NC(=O)NCc1ccco1 | inconclusive [inhibitor, partial curve]
21 | COc1ccc(CNC(=S)Nc2ccccc2F)cc1 | inconclusive [inhibitor, partial curve]
22 | CCOc1cc(CNc2ncc(-c3ccc(OC)cc3)n2C)ccc1O | inconclusive [inhibitor, partial curve]
23 | Cn1cc(SCC(=O)Nc2ccc3c(c2)OCO3)c2ccccc21 | inactive

Row | SMILES | Potency
24 | C=C(C)COc1cc2oc(=O)c(CC(=O)N3C[C@H]4C[C@@H](C3)c3cccc(=O)n3C4)c(C)c2cc1Cl | inconclusive [inhibitor, partial curve]
25 | c1ccc(C2c3c(ccc4ccccc34)Oc3ncn4nc(-c5ccco5)nc4c32)cc1 (centres undefined) | inactive
26 | CCC1CCCCN1S(=O)(=O)c1ccc(C(=O)Nc2nnc(C3CC3)o2)cc1 (centres undefined) | inactive
27 | Nc1ccc(Oc2c(Cl)cccc2Cl)nc1 | inconclusive [inhibitor, partial curve, poor fit]
28 | CCNc1cccc2c1C(=O)N(C)C2=O | inconclusive [inhibitor, full curve, poor fit]
29 | COc1cc(CNc2cccc(F)c2)cc(Br)c1O | active: 12.6 µM
30 | CCOC(=O)c1cc(-c2ccccc2)n(-c2cccc(C(=O)Nc3cccc(C(C)=O)c3)c2)c1C | inconclusive [inhibitor, single point]
31 | CCn1cc(S(=O)(=O)NC2CCCCC2)cn1 | inconclusive [inhibitor, partial curve, poor fit]
32 | CC1=C(n2nnc([N+](=O)[O-])n2)C(c2cccnc2)C(C#N)=C(N)O1 (centres undefined) | inconclusive [inhibitor, partial curve]
33 | CCN(CCO)Cc1cc(=O)oc2cc3c(cc12)CCC3 | inconclusive [inhibitor, partial curve]
34 | COc1ccc(OCc2cc(C(=O)N(C)C(C)c3ccon3)no2)c(Cl)c1 (centres undefined) | inconclusive [inhibitor, full curve, poor fit]
35 | COc1ccccc1NC(=S)NCc1cccs1 | inconclusive [inhibitor, partial curve]
36 | Cc1ccc2c(C(=O)CN3CCN(C(=O)c4ccco4)CC3)c(C)[nH]c2c1 | inconclusive [inhibitor, partial curve]
37 | COCc1ccc(C(=O)N2CCCC(C(=O)c3cccc(C(F)(F)F)c3)C2)o1 (centres undefined) | inconclusive [inhibitor, partial curve]
38 | O=C(Nc1ccc(Cl)cc1)N1CCSc2ccccc21 | inactive
39 | COc1ccc(-c2cc(C(=O)NCC(c3ccccc3)N(C)C)c3ccccc3n2)cc1OC (centres undefined) | inactive
40 | O=C(N/N=C/c1cc(Br)c(O)c(Br)c1)c1cccnc1 | active: 89.1 µM
41 | O=C1/C(=C/c2ccc(N3CCOCC3)o2)SC(=Nc2ccccc2)N1CCc1c[nH]c2ccccc12 | active: 8.91 µM
42 | COc1ccc2nc(C)cc(SCC(=O)Nc3c(C)cccc3C)c2c1 | inconclusive [inhibitor, single point]
43 | Cc1c(O)ccc(C(=O)CN2CCN(Cc3ccccc3)CC2)c1O | inconclusive [inhibitor, full curve, poor fit]
44 | Cc1csc(NC(=O)/C=C/c2ccc(C)o2)n1 | active: 20 µM
45 | Cc1oc2cc([N+](=O)[O-])c(O)c([N+](=O)[O-])c2c1C(=O)c1ccc(Br)cc1 | inconclusive [inhibitor, partial curve]
46 | Cc1nnc(N2C(=O)C(=O)/C(=C(/O)c3ccc4c(c3)OCCO4)C2c2ccc(F)cc2)s1 (centres undefined) | inconclusive [inhibitor, partial curve]

Row | SMILES | Potency
47 | Cc1cc(OC(=O)c2ccccc2Cl)cc(=O)n1C | inconclusive [inhibitor, full curve, poor fit]
48 | CCOC(=O)C1(CCOc2ccccc2)CCN(Cc2ccncc2)CC1 | active: 28.2 µM
49 | Cc1ccc(CNC(=O)C2CCN(S(=O)(=O)c3c(C)noc3/C=C/c3ccco3)CC2)cc1 | active: 39.8 µM
50 | COC(=O)c1nn(-c2ccccc2)c(Cl)c1/C=N/OCc1ccc(Cl)cc1Cl | inconclusive [inhibitor, single point]
51 | CCOC(=O)CC1COCCN1C(=O)CCc1nnc(-c2ccsc2)o1 (centres undefined) | inconclusive [inhibitor, single point]
52 | CCOc1ccc(-n2ccnc2SCC(=O)Nc2nnc(C)s2)cc1 | inconclusive [inhibitor, full curve, poor fit]
53 | C#CCOCCOCCOCCNc1nc(N2CCN(C(=O)[C@H]([C@@H](C)CC)n3cc([C@@H](N)Cc4ccc(O)cc4)nn3)CC2)nc(N2CCN(C(=O)[C@H](Cc3cc4ccccc4[nH]3)n3cc([C@@H](N)CC(C)C)nn3)CC2)n1 | inconclusive [inhibitor, partial curve]
54 | O=C(CSc1nc2c([nH]c3ccccc32)c(=O)n1-c1ccccc1)N1CCCCCC1 | inactive
55 | O=c1[nH]c(=O)n(Cc2ccco2)c(O)c1C=NCCN1CCNCC1 | inconclusive [inhibitor, full curve, poor fit]
56 | Clc1ccc(-c2csc(N/N=C\c3cccnc3)n2)cc1 | inactive
57 | COc1ccc(-n2nc(C(=O)NCC(=O)NCc3ccco3)c3ccccc3c2=O)cc1Cl | inconclusive [inhibitor, partial curve]
58 | Cc1cc(NC(=O)CSc2nc(Cc3ccc(O)cc3)c(C)[nH]2)no1 | inconclusive [inhibitor, partial curve]
59 | COC(=O)c1ccc(CSc2ccc3nnc(-c4ccccn4)n3n2)o1 | active: 39.8 µM
60 | C=C(C)CNC(=O)CCc1nnc(C2(c3ccc(Cl)cc3)CCC2)o1 | inactive
61 | O=C(O)Cc1sc(NCc2ccco2)nc1-c1ccccc1 | inconclusive [inhibitor, partial curve]
62 | O=C(Nc1nc(-c2ccc3ccccc3c2)cs1)C1CCN(S(=O)(=O)c2cccs2)CC1 | inactive
63 | CC(C)(C)C1CCc2c(C(=O)NNC(=O)/C=C/C(=O)O)csc2C1 (centres undefined) | inconclusive [inhibitor, partial curve]
64 | CS(=O)(=O)N1CCN(c2ccc(NC(=S)NC(=O)c3ccccc3[N+](=O)[O-])cc2)CC1 | inactive
65 | CC1CC(C)CN(C(=O)c2cc3c(s2)CCC3)C1 (centres undefined) | inconclusive [inhibitor, single point]
66 | Cc1cc(C)c2sc(NC(=O)c3ccc([N+](=O)[O-])o3)nc2c1 | inconclusive [inhibitor, full curve]
67 | CCCN(C(=O)c1ccccc1Cc1ccccc1)C1CCS(=O)(=O)C1 (centres undefined) | inactive
68 | Fc1ccccc1NC(=S)NCCc1ccccc1 | inconclusive [inhibitor, full curve, poor fit]
69 | O=C(CC(=O)Nc1ccccc1[N+](=O)[O-])Nc1ccccc1[N+](=O)[O-] | active: 89.1 µM
